Here are results for 98 sequences from the supplement of paper PMC6451100.

The list shows a part of the results. Read counts after selection give these values, which scatter widely.
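Also: Per-sequence enrichment computed with FASTAptamer, counting only reads that carry the expected constant 3′ region.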

For this test, the target named is T1, Drosophila AGO2 (FLAG-tagged, S2-R+ lysate) (UniProt Q9VUQ5).
T1 sequence: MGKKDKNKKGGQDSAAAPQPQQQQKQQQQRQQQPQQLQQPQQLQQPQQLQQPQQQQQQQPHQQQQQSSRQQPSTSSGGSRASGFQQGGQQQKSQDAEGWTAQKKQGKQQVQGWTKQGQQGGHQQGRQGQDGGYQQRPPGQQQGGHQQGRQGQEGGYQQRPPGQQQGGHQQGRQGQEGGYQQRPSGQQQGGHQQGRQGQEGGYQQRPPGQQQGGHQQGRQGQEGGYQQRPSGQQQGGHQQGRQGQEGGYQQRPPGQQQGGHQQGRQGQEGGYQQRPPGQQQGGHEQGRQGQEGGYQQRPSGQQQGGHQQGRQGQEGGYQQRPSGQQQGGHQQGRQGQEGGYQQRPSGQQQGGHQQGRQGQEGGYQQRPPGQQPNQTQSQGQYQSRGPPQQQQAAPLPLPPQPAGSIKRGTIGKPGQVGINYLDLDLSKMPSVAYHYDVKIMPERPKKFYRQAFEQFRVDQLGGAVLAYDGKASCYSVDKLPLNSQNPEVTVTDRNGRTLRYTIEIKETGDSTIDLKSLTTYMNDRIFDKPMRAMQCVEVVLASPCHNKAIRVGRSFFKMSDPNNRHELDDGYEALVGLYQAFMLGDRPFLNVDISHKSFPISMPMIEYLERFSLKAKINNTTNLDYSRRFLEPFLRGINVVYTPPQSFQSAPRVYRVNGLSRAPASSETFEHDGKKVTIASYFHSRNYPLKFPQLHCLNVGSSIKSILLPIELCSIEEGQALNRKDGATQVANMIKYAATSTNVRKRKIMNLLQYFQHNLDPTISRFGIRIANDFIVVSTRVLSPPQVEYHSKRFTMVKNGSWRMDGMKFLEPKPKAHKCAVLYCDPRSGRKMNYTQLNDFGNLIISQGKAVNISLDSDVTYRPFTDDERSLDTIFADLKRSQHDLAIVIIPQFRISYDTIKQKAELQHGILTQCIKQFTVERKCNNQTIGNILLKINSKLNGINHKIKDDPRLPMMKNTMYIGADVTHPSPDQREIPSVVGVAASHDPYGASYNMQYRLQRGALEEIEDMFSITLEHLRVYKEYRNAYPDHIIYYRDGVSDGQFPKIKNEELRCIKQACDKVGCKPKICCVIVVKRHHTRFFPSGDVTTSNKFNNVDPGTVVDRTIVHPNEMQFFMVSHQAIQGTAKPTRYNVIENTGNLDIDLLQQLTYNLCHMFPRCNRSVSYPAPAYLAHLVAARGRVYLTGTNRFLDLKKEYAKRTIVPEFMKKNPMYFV
As to the kind of experiment: AGO2 loading enrichment factor (IP read count / input read count, not library-size normalised) (ratio); higher = more efficient loading into AGO2. To be noted: randomized region: 5' 5N of miR-317 loop. How it is done: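 HISSA: 5'-phosphorylated, 32P-labelled 20-nt ssRNA oligos (miR-317 loop, first 5 nt randomized, constant 3' part TGAAATGCAAGCAAG as printed in methods; DNA letters for RNA) incubated 1 h at 25°C in lysate of S2-R+ cells expressing FLAG-AGO2. FLAG-AGO2 was immunopurified and bound oligos were sequenced after splinted ligation. Enrichment factor = IP read count / input read count (raw counts, not library-size normalised); single library, no replicates.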
On to CTGTGTGAAATGCAAGCAAG, for which the “AGO2 loading enrichment factor” value is 0.214. The value for CCAGATGAAATGCAAGCAAG was 0.424. The value for TGGTTTGAAATGCAAGCAAG was 0.264; that for AACTGTGAAATGCAAGCAAG was 0.266. With CGCGGTGAAATGCAAGCAAG, the “AGO2 loading enrichment factor” value worked out at 0.414. As for AAGCTTGAAATGCAAGCAAG, the “AGO2 loading enrichment factor” value turned out to be 0.0251. To TTAAGTGAAATGCAAGCAAG belongs 0.577; to GTCAATGAAATGCAAGCAAG, 0.38; to ATCCGTGAAATGCAAGCAAG, 0.614. For AAGTATGAAATGCAAGCAAG, the “AGO2 loading enrichment factor” value was 0.419. Consider CTGTCTGAAATGCAAGCAAG, for which the “AGO2 loading enrichment factor” value is 0.211. To GAAGCTGAAATGCAAGCAAG belongs 0.129. Regarding CGCCGTGAAATGCAAGCAAG, the “AGO2 loading enrichment factor” value was determined as 0.435.

Take TGTGTTGAAATGCAAGCAAG: the “AGO2 loading enrichment factor” value is 0.33.

As for CTGACTGAAATGCAAGCAAG, the “AGO2 loading enrichment factor” value is 0.687. Consider GTTGATGAAATGCAAGCAAG, for which the “AGO2 loading enrichment factor” value is 0.47.

TAGCTTGAAATGCAAGCAAG: the “AGO2 loading enrichment factor” value worked out at 0.0442. Consider AGTTTTGAAATGCAAGCAAG, for which the “AGO2 loading enrichment factor” value came out at 0.328. The value for TATTATGAAATGCAAGCAAG was 0.359; that for ACTGATGAAATGCAAGCAAG was 0.406. For CTTGTTGAAATGCAAGCAAG, the “AGO2 loading enrichment factor” value was determined as 0.203.

On to TGAGATGAAATGCAAGCAAG, for which the “AGO2 loading enrichment factor” value turned out to be 0.435. Take CAGAGTGAAATGCAAGCAAG: the “AGO2 loading enrichment factor” value is 0.413.

In the case of GTGATTGAAATGCAAGCAAG, the “AGO2 loading enrichment factor” value worked out at 0.489. With ACTCCTGAAATGCAAGCAAG, the “AGO2 loading enrichment factor” value is 0.311. As to GGTGATGAAATGCAAGCAAG, the “AGO2 loading enrichment factor” value was determined as 2.42.

As for CAGCTTGAAATGCAAGCAAG, the “AGO2 loading enrichment factor” value came out at 0.0733. To ACCACTGAAATGCAAGCAAG belongs 0.649. GACGATGAAATGCAAGCAAG: the “AGO2 loading enrichment factor” value was determined as 0.83. Consider AGTGCTGAAATGCAAGCAAG, for which the “AGO2 loading enrichment factor” value amounted to 0.137. TCTGTTGAAATGCAAGCAAG: the “AGO2 loading enrichment factor” value stood at 0.486.

Regarding AGGTGTGAAATGCAAGCAAG, the “AGO2 loading enrichment factor” value was 1. In the case of GAGTTTGAAATGCAAGCAAG, the “AGO2 loading enrichment factor” value amounted to 0.167. As to ATCCTTGAAATGCAAGCAAG, the “AGO2 loading enrichment factor” value stood at 0.486. For GAGCGTGAAATGCAAGCAAG, the “AGO2 loading enrichment factor” value was determined as 0.496. To GCGGGTGAAATGCAAGCAAG belongs 0.447. The value for GCAATTGAAATGCAAGCAAG was 0.224; that for CTGGGTGAAATGCAAGCAAG was 1.6.

In the case of ATGCTTGAAATGCAAGCAAG, the “AGO2 loading enrichment factor” value stood at 0.896. Regarding GCAGGTGAAATGCAAGCAAG, the “AGO2 loading enrichment factor” value was 0.183.

Take CCTTGTGAAATGCAAGCAAG: the “AGO2 loading enrichment factor” value was 0.0948. With CCACATGAAATGCAAGCAAG, the “AGO2 loading enrichment factor” value turned out to be 0.461.

As for CGTAATGAAATGCAAGCAAG, the “AGO2 loading enrichment factor” value was 0.401.

Consider TATCTTGAAATGCAAGCAAG, for which the “AGO2 loading enrichment factor” value was determined as 0.0603. To ATAGTTGAAATGCAAGCAAG belongs 0.311; to CCATGTGAAATGCAAGCAAG, 0.341; to ATATCTGAAATGCAAGCAAG, 0.429. CCATTTGAAATGCAAGCAAG: the “AGO2 loading enrichment factor” value is 0.275. To TATATTGAAATGCAAGCAAG belongs 0.394; to TAATCTGAAATGCAAGCAAG, 0.359; to TTATTTGAAATGCAAGCAAG, 0.624. Regarding ACAGCTGAAATGCAAGCAAG, the “AGO2 loading enrichment factor” value worked out at 0.189. To CCGAATGAAATGCAAGCAAG belongs 0.399; to TTATCTGAAATGCAAGCAAG, 0.443; to GCCCATGAAATGCAAGCAAG, 0.175. The value for CGCAGTGAAATGCAAGCAAG was 0.198.

GTAATTGAAATGCAAGCAAG: the “AGO2 loading enrichment factor” value is 0.452.

On to TCGCGTGAAATGCAAGCAAG, for which the “AGO2 loading enrichment factor” value was determined as 0.362.

For TCTTATGAAATGCAAGCAAG, the “AGO2 loading enrichment factor” value is 0.422. For the sequence TCCGGTGAAATGCAAGCAAG, the “AGO2 loading enrichment factor” value was 0.584. To GCGTTTGAAATGCAAGCAAG belongs 0.116; to CCACGTGAAATGCAAGCAAG, 0.702. To ATATGTGAAATGCAAGCAAG belongs 0.35; to TCGTATGAAATGCAAGCAAG, 0.334. As for AGCTCTGAAATGCAAGCAAG, the “AGO2 loading enrichment factor” value came to 0.238. The value for CATTTTGAAATGCAAGCAAG was 0.197. Take AGGTCTGAAATGCAAGCAAG: the “AGO2 loading enrichment factor” value amounted to 0.856. To CCGATTGAAATGCAAGCAAG belongs 0.322; to CCCCGTGAAATGCAAGCAAG, 0.364. To TACTCTGAAATGCAAGCAAG belongs 0.42; to CGAAGTGAAATGCAAGCAAG, 0.455; to GTAACTGAAATGCAAGCAAG, 0.388.

With TAGTGTGAAATGCAAGCAAG, the “AGO2 loading enrichment factor” value turned out to be 0.349. GGGAATGAAATGCAAGCAAG: the “AGO2 loading enrichment factor” value turned out to be 1.9. For the sequence AGTGATGAAATGCAAGCAAG, the “AGO2 loading enrichment factor” value was determined as 0.435. The value for TCCTATGAAATGCAAGCAAG was 0.635; that for AGGATTGAAATGCAAGCAAG was 0.523. Take ATTGCTGAAATGCAAGCAAG: the “AGO2 loading enrichment factor” value came to 0.253. TAACGTGAAATGCAAGCAAG: the “AGO2 loading enrichment factor” value turned out to be 0.343. As for GCCGATGAAATGCAAGCAAG, the “AGO2 loading enrichment factor” value came to 0.351.

Consider CGAGGTGAAATGCAAGCAAG, for which the “AGO2 loading enrichment factor” value came to 1.46. In the case of GCCAATGAAATGCAAGCAAG, the “AGO2 loading enrichment factor” value stood at 0.3. Turning to CTATGTGAAATGCAAGCAAG, the “AGO2 loading enrichment factor” value was found to be 0.159. On to ACTCATGAAATGCAAGCAAG, for which the “AGO2 loading enrichment factor” value was found to be 0.418. To GACGGTGAAATGCAAGCAAG belongs 1.19; to GTTCATGAAATGCAAGCAAG, 0.402. To AGTGTTGAAATGCAAGCAAG belongs 0.35; to AATCCTGAAATGCAAGCAAG, 0.318; to CTTTTTGAAATGCAAGCAAG, 0.199. The value for CCAACTGAAATGCAAGCAAG was 0.419; that for AGTCATGAAATGCAAGCAAG was 0.434. On to TATGTTGAAATGCAAGCAAG, for which the “AGO2 loading enrichment factor” value was 0.253. For the sequence TCACATGAAATGCAAGCAAG, the “AGO2 loading enrichment factor” value is 0.373. To TAAGGTGAAATGCAAGCAAG belongs 0.592; to ACCAGTGAAATGCAAGCAAG, 0.386; to TGATCTGAAATGCAAGCAAG, 0.423. Turning to GATTTTGAAATGCAAGCAAG, the “AGO2 loading enrichment factor” value came out at 0.434.

For TCTGGTGAAATGCAAGCAAG, the “AGO2 loading enrichment factor” value is 0.54.
